Assay results taken from article PMC9911399, “Two distinct binding modes provide the RNA-binding protein RbFox with extraordinary sequence specificity”.
Changes are numbered by the printed parent chain; changes in the protein carry UniProt numbers. Some of the results follow.

B1: GCCAAGG (DNA:RNA)
RNA: GGGAGACCGGAAUUCAGAUUGUCCGCCAAGGUUAAAUCCCGUCGUAGCCACCA
DNA 1: CAATCTGAATTCCGGTCTCCC
DNA 2: TGGTGGCTACGACGGGATT
B2: CGCGGGU (DNA:RNA)
RNA: B1 RNA with G25C, C26G, A28G, A29G, G31U
DNA 1: CAATCTGAATTCCGGTCTCCC
DNA 2: TGGTGGCTACGACGGGATT
B3: GGCAACU (DNA:RNA)
RNA: B1 RNA with C26G, G30C, G31U
DNA 1: CAATCTGAATTCCGGTCTCCC
DNA 2: TGGTGGCTACGACGGGATT
B4: GCUCUUC (DNA:RNA)
RNA: B1 RNA with C27U, A28C, A29U, G30U, G31C
DNA 1: CAATCTGAATTCCGGTCTCCC
DNA 2: TGGTGGCTACGACGGGATT
B5: AUUUUAG (DNA:RNA)
RNA: B1 RNA with G25A, C26U, C27U, A28U, A29U, G30A
DNA 1: CAATCTGAATTCCGGTCTCCC
DNA 2: TGGTGGCTACGACGGGATT
B6: GAUCCGC (DNA:RNA)
RNA: B1 RNA with C26A, C27U, A28C, A29C, G31C
DNA 1: CAATCTGAATTCCGGTCTCCC
DNA 2: TGGTGGCTACGACGGGATT
B7: UGCAAAU (DNA:RNA)
RNA: B1 RNA with G25U, C26G, G30A, G31U
DNA 1: CAATCTGAATTCCGGTCTCCC
DNA 2: TGGTGGCTACGACGGGATT
B8: CAGCUAA (DNA:RNA)
RNA: GGGAGACCGGAAUUCAGAUUGUCCCAGCUAAUUAAAUCCCGUCGUAGCCACCA
DNA 1: CAATCTGAATTCCGGTCTCCC
DNA 2: TGGTGGCTACGACGGGATT
B9: ACACAAG (DNA:RNA)
RNA: B1 RNA with G25A, C27A, A28C, G30A
DNA 1: CAATCTGAATTCCGGTCTCCC
DNA 2: TGGTGGCTACGACGGGATT
B10: UGGCCCC (DNA:RNA)
RNA: B8 RNA with C25U, A26G, U29C, A30C, A31C
DNA 1: CAATCTGAATTCCGGTCTCCC
DNA 2: TGGTGGCTACGACGGGATT
B11: GUGCAGU (DNA:RNA)
RNA: B1 RNA with C26U, C27G, A28C, G31U
DNA 1: CAATCTGAATTCCGGTCTCCC
DNA 2: TGGTGGCTACGACGGGATT
B12: CACACAC (DNA:RNA)
RNA: B8 RNA with G27C, C28A, U29C, A31C
DNA 1: CAATCTGAATTCCGGTCTCCC
DNA 2: TGGTGGCTACGACGGGATT
B13: GAUUGGA (DNA:RNA)
RNA: B8 RNA with C25G, G27U, C28U, U29G, A30G
DNA 1: CAATCTGAATTCCGGTCTCCC
DNA 2: TGGTGGCTACGACGGGATT
B14: AAAGCUA (DNA:RNA)
RNA: B8 RNA with C25A, G27A, C28G, U29C, A30U
DNA 1: CAATCTGAATTCCGGTCTCCC
DNA 2: TGGTGGCTACGACGGGATT
B15: GCCCUCA (DNA:RNA)
RNA: B8 RNA with C25G, A26C, G27C, A30C
DNA 1: CAATCTGAATTCCGGTCTCCC
DNA 2: TGGTGGCTACGACGGGATT
B16: GAAAGAA (DNA:RNA)
RNA: B8 RNA with C25G, G27A, C28A, U29G
DNA 1: CAATCTGAATTCCGGTCTCCC
DNA 2: TGGTGGCTACGACGGGATT
B17: AAUCUCU (DNA:RNA)
RNA: B8 RNA with C25A, G27U, A30C, A31U
DNA 1: CAATCTGAATTCCGGTCTCCC
DNA 2: TGGTGGCTACGACGGGATT
B18: GAGUAAG (DNA:RNA)
RNA: B8 RNA with C25G, C28U, U29A, A31G
DNA 1: CAATCTGAATTCCGGTCTCCC
DNA 2: TGGTGGCTACGACGGGATT
B19: UCCCUAU (DNA:RNA)
RNA: B8 RNA with C25U, A26C, G27C, A31U
DNA 1: CAATCTGAATTCCGGTCTCCC
DNA 2: TGGTGGCTACGACGGGATT
B20: AGAUUGG (DNA:RNA)
RNA: B1 RNA with G25A, C26G, C27A, A28U, A29U
DNA 1: CAATCTGAATTCCGGTCTCCC
DNA 2: TGGTGGCTACGACGGGATT
B21: UCGAGUG (DNA:RNA)
RNA: B1 RNA with G25U, C27G, A29G, G30U
DNA 1: CAATCTGAATTCCGGTCTCCC
DNA 2: TGGTGGCTACGACGGGATT
B22: AUUUACC (DNA:RNA)
RNA: B1 RNA with G25A, C26U, C27U, A28U, G30C, G31C
DNA 1: CAATCTGAATTCCGGTCTCCC
DNA 2: TGGTGGCTACGACGGGATT
B23: GAUUUCU (DNA:RNA)
RNA: B8 RNA with C25G, G27U, C28U, A30C, A31U
DNA 1: CAATCTGAATTCCGGTCTCCC
DNA 2: TGGTGGCTACGACGGGATT
B24: UAUCACC (DNA:RNA)
RNA: B8 RNA with C25U, G27U, U29A, A30C, A31C
DNA 1: CAATCTGAATTCCGGTCTCCC
DNA 2: TGGTGGCTACGACGGGATT
B25: CUUAGAC (DNA:RNA)
RNA: B8 RNA with A26U, G27U, C28A, U29G, A31C
DNA 1: CAATCTGAATTCCGGTCTCCC
DNA 2: TGGTGGCTACGACGGGATT
B26: GCGGGAA (DNA:RNA)
RNA: B8 RNA with C25G, A26C, C28G, U29G
DNA 1: CAATCTGAATTCCGGTCTCCC
DNA 2: TGGTGGCTACGACGGGATT
B27: GCUGCUA (DNA:RNA)
RNA: B1 RNA with C27U, A28G, A29C, G30U, G31A
DNA 1: CAATCTGAATTCCGGTCTCCC
DNA 2: TGGTGGCTACGACGGGATT
B28: UUCUAAC (DNA:RNA)
RNA: B1 RNA with G25U, C26U, A28U, G30A, G31C
DNA 1: CAATCTGAATTCCGGTCTCCC
DNA 2: TGGTGGCTACGACGGGATT
B29: ACGCUGC (DNA:RNA)
RNA: B8 RNA with C25A, A26C, A30G, A31C
DNA 1: CAATCTGAATTCCGGTCTCCC
DNA 2: TGGTGGCTACGACGGGATT
B30: CAGCAUC (DNA:RNA)
RNA: B8 RNA with U29A, A30U, A31C
DNA 1: CAATCTGAATTCCGGTCTCCC
DNA 2: TGGTGGCTACGACGGGATT
B31: AUCUCGA (DNA:RNA)
RNA: B1 RNA with G25A, C26U, A28U, A29C, G31A
DNA 1: CAATCTGAATTCCGGTCTCCC
DNA 2: TGGTGGCTACGACGGGATT

Molecular target: T1, RBFOX1 RRM RbFoxmut (Fox-RRM*) (Homo sapiens, UniProt Q9NWB1 109-208, R118D;E147R;N151S;E152T)
T1 sequence: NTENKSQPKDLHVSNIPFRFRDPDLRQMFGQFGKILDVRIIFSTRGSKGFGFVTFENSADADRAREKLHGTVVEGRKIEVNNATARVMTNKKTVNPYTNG
Assay: EMSA; HiTS-Eq, 1 nM pool, 10 min; buffer printed only for the single-RNA assays: 10 mM Tris pH 7.5, 150 mM NaCl, 3.4 mM EDTA, 0.001% NP-40, 30 C
Settings: tags: His6 N-terminal (pET28a); label: 5' 32P
Outline: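 A pool of RNA with 7 randomized nucleotides, 5′-radiolabelled and with DNA-annealed flanks, was equilibrated at 1 nM for 10 min in 50 µL with purified RbFox RRM, wild type or mutant, across increasing protein concentrations. Free RNA was separated by 8% native PAGE, excised, reverse-transcribed, barcoded by PCR and sequenced. Relative association constants were obtained from read-count changes of each RNA species versus the control reaction and normalised to the cognate motif.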

Row | Binder | binding signal
1 | B1 | 0.0599 KA relative to UGCAUGU
2 | B2 | 0.0947 KA relative to UGCAUGU
3 | B3 | 0.057 KA relative to UGCAUGU
4 | B4 | 0.0502 KA relative to UGCAUGU
5 | B5 | 0.152 KA relative to UGCAUGU
6 | B6 | 0.0971 KA relative to UGCAUGU
7 | B7 | 0.0783 KA relative to UGCAUGU
8 | B8 | 0.115 KA relative to UGCAUGU
9 | B9 | 0.118 KA relative to UGCAUGU
10 | B10 | 0.0665 KA relative to UGCAUGU
11 | B11 | 0.105 KA relative to UGCAUGU
12 | B12 | 0.0688 KA relative to UGCAUGU
13 | B13 | 0.0641 KA relative to UGCAUGU
14 | B14 | 0.0949 KA relative to UGCAUGU
15 | B15 | 0.0672 KA relative to UGCAUGU
16 | B16 | 0.0926 KA relative to UGCAUGU

Row | Binder | binding signal
17 | B17 | 0.0366 KA relative to UGCAUGU
18 | B18 | 0.11 KA relative to UGCAUGU
19 | B19 | 0.087 KA relative to UGCAUGU
20 | B20 | 0.125 KA relative to UGCAUGU
21 | B21 | 0.167 KA relative to UGCAUGU
22 | B22 | 0.108 KA relative to UGCAUGU
23 | B23 | 0.0523 KA relative to UGCAUGU
24 | B24 | 0.0566 KA relative to UGCAUGU
25 | B25 | 0.068 KA relative to UGCAUGU
26 | B26 | 0.114 KA relative to UGCAUGU
27 | B27 | 0.0972 KA relative to UGCAUGU
28 | B28 | 0.108 KA relative to UGCAUGU
29 | B29 | 0.109 KA relative to UGCAUGU
30 | B30 | 0.307 KA relative to UGCAUGU
31 | B31 | 0.0871 KA relative to UGCAUGU
